The text below walks through data of the supplement of paper PMC9135407.

This assay deals with primary human hepatic stellate cells (donor 1). Briefly: scaled lipid accumulation score (0 = DMSO-like, 1 = nortriptyline-like); higher = stronger HSC inactivation (lipid re-accumulation), active = hit call of the paper. Conditions: 48 h. Here is the method:
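Primary lipid accumulation screen in primary human hepatic stellate cell myofibroblasts (donor 1, passage 8) in 384-well plates. 100 nL of library compound was pin-transferred into 30 µL medium in duplicate, and cells were treated for 48 h. The 'Scaled' score combines distance from plate baseline, toxicity and reproducibility penalties, and is normalised to nortriptyline (positive) and DMSO (negative) controls on each plate. A hit is defined as scaled >0.85 or among the top 3 wells per plate.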

[1] abbreviates: library stock concentration: 10 mM.
Where [2] appears, read: library stock concentration: 3.33 mM.
The mark [3] stands for this setting: library stock concentration: 400 uM.
Setting [4] is: library stock concentration: 2 mM.

“And” between values parts separate entries of the source, which are not always exact repeats. Identical values can stand only once. Counter-ions that a name gives are not always drawn. In all, about 5,800 compounds went through this assay and about 620 (11%) showed activity.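 The calls were made as follows: active = score above a cut-off or among the top three wells of a plate; in these data no inactive exceeds 0.85.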 The list shows a part of the results, in another mix than the full data.

In the case of `Nc1nc(SCc2ccc([N+](=O)[O-])cc2)c2ncn([C@@H]3O[C@H](CO)[C@H](O)C3O)c2n1` (stereo partly drawn) [S-(4-Nitrobenzyl)-6-thioguanosine], under setting [1], the “scaled lipid accumulation score” value was inactive: 0.41.
Regarding `O=S(=O)(O)CCCS(=O)(=O)O`, the “scaled lipid accumulation score” value under setting [1] is inactive: ≤ 0.
As to `COc1ccc(NS(=O)(=O)c2sc3ccc(Cl)cc3c2C)cc1N1CCNCC1`, the “scaled lipid accumulation score” value under setting [1] is active: 1.31.
In the case of `O=C(NS(=O)(=O)c1ccc(Br)s1)c1ccc(Cl)cc1Cl` [Tasisulam], the “scaled lipid accumulation score” value under setting [2] was inactive: ≤ -0.009 and the “scaled lipid accumulation score” value under setting [1] is inactive: ≤ 0.
With `O=C1NCN(c2ccccc2)C12CCN(CCCC(c1ccc(F)cc1)c1ccc(F)cc1)CC2` [Fluspirilene], the “scaled lipid accumulation score” value under setting [1] is active: 1.02.
Turning to `O=C(O)c1ccc2c3c1cccc3c(=O)n1c3ccccc3nc21`, the “scaled lipid accumulation score” value under setting [2] was inactive: ≤ 0.
`Cn1c2ccccc2c2c3c(c4c5ccccc5n(CCC#N)c4c21)CNC3=O`: the “scaled lipid accumulation score” value under setting [2] is inactive: ≤ 0 and the “scaled lipid accumulation score” value (library stock concentration: 13.2 mM) was inactive: 0.297.
In the case of `OCCOCCN1CCN(C(c2ccccc2)c2ccc(Cl)cc2)CC1` (configuration not stated) [Hydroxyzine 2HCl], the “scaled lipid accumulation score” value by setting is: under setting [2], inactive: 0.1; under setting [1], inactive: 0.631.
Regarding `OCCOCCN1CCN(C(c2ccccc2)c2ccc(Cl)cc2)CC1` (configuration not stated) [Hydroxyzine dihydrochloride], the “scaled lipid accumulation score” value was inactive: 0.453.
Take `OCCOCCN1CCN(C(c2ccccc2)c2ccc(Cl)cc2)CC1` (configuration not stated) [Hydroxyzine pamoate]: the “scaled lipid accumulation score” value (library stock concentration: 2.6 mM) is inactive: 0.044 and the “scaled lipid accumulation score” value under setting [1] was inactive: 0.142.
For `C=CC1=C(C(=O)O)N2C(=O)[C@@H](NC(=O)/C(=N\OCC(=O)O)c3csc(N)n3)[C@H]2SC1` [Cefixime], the “scaled lipid accumulation score” value is inactive: ≤ 0.
For `C=CC1=C(C(=O)O)N2C(=O)[C@@H](NC(=O)/C(=N\OCC(=O)O)c3csc(N)n3)[C@H]2SC1`, the “scaled lipid accumulation score” value under setting [1] is inactive: ≤ 0.
On to `N#CCNC(=O)c1ccc(-c2ccnc(Nc3ccc(N4CCOCC4)cc3)n2)cc1`, for which the “scaled lipid accumulation score” value was active: 1.05 under setting [2] and active: 0.922 under setting [1].
`Cc1cc(-n2c(=O)[nH]c(=O)n(C)c2=O)ccc1Oc1ccc(SC(F)(F)F)cc1` [Toltrazuril]: the “scaled lipid accumulation score” value is, setting by setting: under setting [2], inactive: ≤ 0; (library stock concentration: 4.7 mM) inactive: ≤ 0; under setting [1], inactive: ≤ -0.001.
For `Cc1ccccc1N1C(=O)c2cc(S(N)(=O)=O)c(Cl)cc2NC1C` (configuration not stated) [Metolazone], the “scaled lipid accumulation score” value is inactive: 0.156. The “scaled lipid accumulation score” value under setting [2] was inactive: ≤ 0.
In the case of `CC(C)COC(=O)c1ccc(N)cc1`, under setting [1], the “scaled lipid accumulation score” value is inactive: 0.122.
As for `CN(C)CCCOc1nn(Cc2ccccc2)c2ccccc12.Cl` [Benzydamine HCl], the “scaled lipid accumulation score” value under setting [1] is active: 1.08.
As to `O=C1N(c2ccccc2)c2ccccc2C1(Cc1ccncc1)Cc1ccncc1` [Linopirdine dihydrochloride], the “scaled lipid accumulation score” value under setting [1] was inactive: ≤ -0.001.
Regarding `O=C1N(c2ccccc2)c2ccccc2C1(Cc1ccncc1)Cc1ccncc1`, the “scaled lipid accumulation score” value under setting [1] was inactive: ≤ 0.
Regarding `O=C1N(c2ccccc2)c2ccccc2C1(Cc1ccncc1)Cc1ccncc1` [Linopirdine], the “scaled lipid accumulation score” value under setting [1] is inactive: ≤ -0.051.
Take `[I-].[K+]` [Potassium Iodide]: the “scaled lipid accumulation score” value was inactive: ≤ 0 under setting [2] and inactive: ≤ 0 under setting [1].
As to `COc1ccc2cc1Oc1ccc(cc1)C[C@@H]1c3c(cc4c(c3Oc3cc5c(cc3OC)CCN(C)[C@H]5C2)OCO4)CCN1C` [Cepharanthine], the “scaled lipid accumulation score” value under setting [2] is active: 1.03.
`CC(=O)N1CCN(CCOc2ccc(C3CCN(C4=Nn5c(nnc5C(F)(F)F)CC4)CC3)cc2)CC1`: the “scaled lipid accumulation score” value under setting [2] is inactive: ≤ 0 and the “scaled lipid accumulation score” value under setting [1] is inactive: 0.455.
For `CCCCC[C@H](O)/C=C/C=C\C=C\C=C\[C@@H](O)[C@@H](O)CCCC(=O)O` [Lipoxin A4], the “scaled lipid accumulation score” value (library stock concentration: 100 uM) is inactive: ≤ -0.021.
Regarding `C=CC(=O)Nc1ccc2ncnc(Nc3ccc(OCc4cccc(F)c4)c(Cl)c3)c2c1`, the “scaled lipid accumulation score” value was inactive: ≤ -0.016 (library stock concentration: 80 uM); inactive: ≤ -0.016 under setting [3]; inactive: ≤ -0.016 under setting [4]; inactive: 0.132 under setting [2]; inactive: 0.378 and inactive: 0.75 under setting [1].
On to `CC(Oc1c(Cl)cccc1Cl)C1=NCCN1` (configuration not stated), for which, under setting [1], the “scaled lipid accumulation score” value was inactive: ≤ 0 and inactive: 0.046.
For the compound `CC(Oc1c(Cl)cccc1Cl)C1=NCCN1` (configuration not stated) [Lofexidine], the “scaled lipid accumulation score” value (library stock concentration: 7.7 mM) is inactive: 0.02.
Take `CC1=C(CC(=O)O)c2cc(F)ccc2/C1=C\c1ccc([S+](C)[O-])cc1` (configuration not stated) [Sulindac]: the “scaled lipid accumulation score” value is inactive: ≤ 0. The “scaled lipid accumulation score” value (library stock concentration: 1 mM) is inactive: ≤ 0. Further, under setting [2], the “scaled lipid accumulation score” value was inactive: 0.011. Moreover, the “scaled lipid accumulation score” value under setting [1] is inactive: ≤ 0 and inactive: 0.001 and inactive: 0.022.
For `CN(C)CCCO[C@@H]1[C@H]2OC(C)(C)O[C@H]2O[C@@H]1[C@H](O)CO` [Amiprilose hydrochloride], the “scaled lipid accumulation score” value was inactive: ≤ 0.
On to `CN(C)CCCO[C@@H]1[C@H]2OC(C)(C)O[C@H]2O[C@@H]1[C@H](O)CO` [Amiprilose], for which the “scaled lipid accumulation score” value by setting is: (library stock concentration: 5.9 mM) inactive: ≤ 0; under setting [1], inactive: ≤ -0.027.
Take `C[C@]12CC[C@@H]3c4ccc(O)cc4CC[C@H]3[C@@H]1C[C@@H](O)[C@@H]2O` [Estriol]: the “scaled lipid accumulation score” value was inactive: ≤ 0. Moreover, the “scaled lipid accumulation score” value under setting [2] was inactive: ≤ 0. For the same compound, the “scaled lipid accumulation score” value (library stock concentration: 6.9 mM) was inactive: ≤ 0 and inactive: ≤ -0.001. The “scaled lipid accumulation score” value under setting [1] is inactive: ≤ 0.
`Cc1nc(N)sc1-c1ccnc(Nc2ccc(N3CCOCC3)cc2)n1`: the “scaled lipid accumulation score” value under setting [3] is inactive: ≤ -0.005, the “scaled lipid accumulation score” value under setting [4] is inactive: ≤ -0.005 and the “scaled lipid accumulation score” value under setting [2] is inactive: ≤ 0.
Consider `CCC[C@H](NC(=O)[C@@H]1[C@H]2CCC[C@H]2CN1C(=O)[C@@H](NC(=O)[C@@H](NC(=O)c1cnccn1)C1CCCCC1)C(C)(C)C)C(=O)C(=O)NC1CC1` [Telaprevir (VX-950)], for which the “scaled lipid accumulation score” value was inactive: ≤ 0 under setting [2] and inactive: ≤ 0 under setting [1].
Regarding `CCc1cccc2c3c([nH]c12)C(CC)(CC(=O)O)OCC3` (configuration not stated) [Etodolac], the “scaled lipid accumulation score” value was inactive: ≤ 0. Further, under setting [2], the “scaled lipid accumulation score” value was inactive: ≤ 0. Besides, the “scaled lipid accumulation score” value (library stock concentration: 7 mM) is inactive: ≤ 0. In addition, the “scaled lipid accumulation score” value under setting [1] was inactive: 0.142 and inactive: ≤ 0 and inactive: ≤ -0.07.
Take `Cc1noc(NS(=O)(=O)c2ccc(N)cc2)c1C` [Sulfisoxazole]: the “scaled lipid accumulation score” value was inactive: 0.048. For the same compound, the “scaled lipid accumulation score” value under setting [2] is inactive: ≤ 0. In addition, where the note is “library stock concentration: 7.5 mM”, the “scaled lipid accumulation score” value was inactive: ≤ 0. Besides, the “scaled lipid accumulation score” value under setting [1] was inactive: ≤ 0 and inactive: 0.037 and inactive: 0.113.
In the case of `CCCCC(=O)O[C@]1(C(=O)CO)CC[C@H]2[C@@H]3CCC4=CC(=O)CC[C@]4(C)[C@H]3[C@@H](O)C[C@@]21C` [Hydrocortisone valerate], for the setting “library stock concentration: 4.5 mM”, the “scaled lipid accumulation score” value was inactive: ≤ 0.
Take `CCCCC(=O)O[C@]1(C(=O)CO)CC[C@H]2[C@@H]3CCC4=CC(=O)CC[C@]4(C)[C@H]3[C@@H](O)C[C@@]21C` [Westcort]: the “scaled lipid accumulation score” value under setting [1] was inactive: 0.094.
